In PubChem BioAssay AID1347071 (National Center for Advancing Translational Sciences (NCATS), 2019):
Screen size: about 410,000 compounds; about 260 (0.063%) were called active. This list was built around the results that the source calls inconclusive (neither active nor inactive); the mix of calls is not that of the screen. The call rests on the fitted dose curve; in most records, active means well fitted activation curve with a large enough effect; inconclusive means small, poorly fitted or top-dose-only effect; inactive means no such curve, though single readings can be large or run the other way. No potency is given beside an inconclusive call; the fits are too rough.

Test: qHTS for compounds that reverse cellular toxicity of Amyloid beta (A-beta) peptide in yeast: Primary Screen; further: nearly all actives have a fitted effect of over 55% in size
Settings: yeast expressing A-beta42, growth rescue, OD600, 48 h; growth rescue: at 46.1 µM (top of the series), 0% DMSO, 100% iron-clioquinol control
Method in brief: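 Yeast growth medium received pinned compounds, then yeast cells expressing toxic A-beta were added; plates incubated at 30 C for 48 hr. Growth read as absorbance at 600 nm, normalized to DMSO and equimolar FeCl3 plus clioquinol controls.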
Potency means the concentration at half of the fitted maximal effect; tags describe the fitted curve by direction and shape.

Structure (SMILES) | Potency | growth rescue
CCNC(=O)CN1C(=O)NC2(CCCCCC2)C1=O | inactive | 
CCc1ccc(OCC(=O)NNC(=O)c2cnccn2)c(Br)c1 | active: 25.1 µM | 
N#CCC(=O)Nc1ccc(C(F)(F)F)cc1N1CCOCC1 | inactive | 
COc1ccccc1-c1noc(-c2ccc(N3CCC(C)CC3)c([N+](=O)[O-])c2)n1 | inactive | 
CCOC(=O)CCCc1ccc(/C(C)=N/NC(=S)NC)cc1 | inconclusive [activator, partial curve, poor fit] | 
CCC(CC)c1nnc(NC(=O)CCc2ccc(OC)cc2)s1 | inconclusive [activator, partial curve, poor fit] | 
COc1cccc(/C=N/Nc2cc(C)nc(-c3ccccc3O)n2)c1O | inconclusive [activator, full curve] | 
O=C(c1ccco1)N1CCN(Cc2ccccc2F)CC1 | inconclusive [activator, full curve, poor fit] | 
Cc1ccc(CC2CC(=O)N(c3nc4ccccc4n3C)C2=O)cc1 (stereo not drawn) | inconclusive [activator, full curve] | 
Cc1cccc(N2CCN(C(=O)CCN3C(=S)NC(C)(C)CC3C)CC2)c1C (stereo not drawn) | inconclusive [activator, partial curve, poor fit] | 
Cc1c(Cl)cccc1NC(=S)NCc1ccco1 | inconclusive [activator, single point] | 
Cc1ccc(NC(=S)Nc2cccc3ccccc23)cc1F | inconclusive [activator, partial curve, poor fit] | 
Cc1[nH]c2ccccc2c1C(=O)C(=O)N1c2ccccc2CC1C (stereo not drawn) | inconclusive [activator, single point] | 
COc1ccc(C/C(=N\OC(C)=O)c2ccc(OC)cc2)cc1 | inactive | 
CCOc1cc(-c2ccc(OC(=O)c3ccccc3F)cc2)cc(=O)c2c(C)oc(C)c12 | inactive | 
COc1ccccc1Cc1c(-c2ccc(OC)c(OC)c2)nc2c3ccccc3ccn12 | inactive | 
O=S(=O)(NC1CC1)c1ccc(S(=O)(=O)N2CCCC(c3nc(-c4cccnc4)no3)C2)cc1 (stereo not drawn) | inconclusive [activator, single point] | 
O=C(NCc1ccc(F)cc1)c1ccc(CSCc2cccc(Cl)c2)o1 | inactive | 
[O-]/C(=C(\C(=S)NCc1ccc2c(c1)OCO2)[n+]1ccccc1)c1ccc(Cl)s1 | inconclusive [activator, partial curve] | 
C/C(Cc1ccccc1)=N\NC(=O)CCCCCC(=O)N/N=C(\C)Cc1ccccc1 | inconclusive [activator, partial curve, poor fit] | 
Oc1ccc(COCc2ccccc2)c2cccnc12 | inconclusive [activator, single point] | 
COc1ccc(OC)c(S(=O)(=O)N2CCC(c3ccncc3)CC2)c1 | inactive | 
CCCCOc1cccc(/C=C(\C#N)C(=O)NC2CC2)c1 | inconclusive [activator, partial curve] | 
Cc1cc(C)c2cc(C(=O)Nc3ccc4c(c3)OCO4)[nH]c2c1 | inconclusive [activator, single point] | 
CSc1ccc(Cn2c(C)c(C(=O)NCc3ccc(Cl)c(Cl)c3)sc2=O)cc1 | inconclusive [activator, single point] | 

Structure (SMILES) | Potency | growth rescue
CCN(CC)C(=O)c1ccc2c(=O)n(Cc3cccc(Br)c3)c(=S)[nH]c2c1 | inactive | 
O=C(C/C=N/OCc1c(Cl)cccc1Cl)c1ccc(Cl)cc1 | inconclusive [activator, partial curve, poor fit] | 
O=C(/C=C/c1ccccc1Cl)c1ccc(O)cc1 | inconclusive [activator, partial curve, poor fit] | 
O=C(NC1CCCCC1)c1cc(Nc2cccc(C(F)(F)F)c2)nc2ccccc12 | inactive | 
CCN(Cc1ccccc1)C(=O)c1nc(-c2cccc(F)c2)n2c1CCCCC2 | inactive | 
O=C(Nc1nccs1)C(Br)C(Br)c1ccccc1 (stereo not drawn) | inactive | 
CC1CC1C(=O)OCC(=O)NC(=O)NC12CC3CC(CC(C3)C1)C2 (stereo not drawn) | active: 8.91 µM | 
COc1ccc(NC(=S)NCCc2c[nH]c3ccccc23)cc1 | inconclusive [activator, partial curve, poor fit] | 
Cc1cccc(-n2ncc3c(Nc4ccc(Oc5ccc(Cl)cc5)cc4)ncnc32)c1 | inactive | 
Cc1ccc(-c2c[nH]c(=S)n2-c2ccccc2)cc1 | inconclusive [activator, single point] | 
CCn1nnc(NC(=O)CSc2ccc(Cl)cc2)n1 |  | inconclusive: -39.2% [activator]
CCOC(=O)Nc1ccc(S(=O)(=O)N(C)C(C)C)cc1 | inconclusive [activator, partial curve, poor fit] | 
C/C(=N\NC(=S)NCc1ccccc1)c1ccc2ccccc2c1 | inconclusive [activator, single point] | 
C[C@@H]1NS(=O)(=O)c2cc(Cl)ccc2O[C@@H]1c1ccccc1 | inconclusive [activator, single point] | 
CCN(CC)CCNC(=O)COc1ccc(Cl)cc1Cl | inactive | 
Cc1cc(NC(=O)OC2CCCCC2)ccc1[N+](=O)[O-] | inconclusive [activator, single point] | 
COc1ccc(-c2nc(NC(=O)c3ccco3)sc2C)cc1 | inactive | 
Cc1cccc(C)c1NC(=S)NC(=O)c1ccc(Br)o1 | inconclusive [activator, single point] | 
Cc1ccccc1NS(=O)(=O)c1cc(C(=O)N2CCCC2)ccc1Cl | inactive | 
O=C(NC1CCCC1)c1ccc(CSCc2ccccc2F)o1 | inconclusive [activator, full curve, poor fit] | 
CCOc1ccc(NC(=O)CN(C)C(=O)C2COc3ccccc3O2)cc1OCC (stereo not drawn) | inconclusive [activator, partial curve, poor fit] | 
O=C(/C=C\c1ccco1)NC(=S)Nc1ccccc1O | inconclusive [activator, partial curve, poor fit] | 
COCc1ccc(C(=O)N2CCc3c([nH]c4ccccc34)C2c2ccccn2)s1 (stereo not drawn) | inconclusive [activator, partial curve, poor fit] | 
N#CCCCn1c(-c2ccccc2)noc1=O | inactive | 
COc1ccccc1C(c1c(O)cc(C)n(Cc2ccco2)c1=O)N1CCCCC1 (stereo not drawn) | inconclusive [activator, full curve] | 

Structure (SMILES) | Potency | growth rescue
O=C(CCc1nc2ccccc2c(=O)[nH]1)OCc1cccc(C(F)(F)F)c1 | inactive | 
Cc1[nH]c2ccccc2c1/C=C/c1nc2ccccc2c(=O)[nH]1 | inconclusive [activator, single point] | 
Cc1ccc(S(=O)(=O)NCc2ccc(C(=O)NCCc3ccc(S(N)(=O)=O)cc3)cc2)cc1 | inconclusive [activator, full curve] | 
S=c1nc(NCc2cccc(Cl)c2)c2ccccc2[nH]1 | inconclusive [activator, single point] | 
CCOc1ccc(N2C(=O)CC(N(C)Cc3ccccc3)C2=O)cc1 (stereo not drawn) | inactive | 
Cc1ccc(C)c(N2CCN(C(=O)CCc3nnc4n(C)c(=O)c5ccccc5n34)CC2)c1 | inactive | 
COc1ccc(OC)c(NC(=O)C(=O)c2cn(CC(=O)N3CCCC3)c3ccccc23)c1 | inactive | 
CC(C)C[C@H](NC(=O)c1[nH]cnc1C(=O)Nc1ccccc1)C(=O)OC(C)(C)C | inconclusive [activator, single point] | 
O=C(/C=C/c1ccccc1)NC(=S)NNS(=O)(=O)c1ccccc1 | inconclusive [activator, full curve] | 
Cc1ccsc1C(=O)OCC(=O)Nc1cccc(F)c1 | inconclusive [activator, single point] | 
COc1cccc(/C=N/NC(=S)Nc2cccc(C(=O)O)c2)c1O | inactive | 
COc1ccccc1NC(=O)CSc1nc2n[nH]c(C)c2c(=N)n1-c1ccccc1Cl | inactive | 
O=C(C1COc2ccccc2O1)N1CCN(c2nc3c(F)cc(F)cc3s2)CC1 (stereo not drawn) | inconclusive [activator, partial curve, poor fit] | 
O=[N+]([O-])c1ccc(Nc2cccc(F)c2)nc1 | inactive | 
COc1ccc2c(CC(=O)OCC(=O)N(C)c3c(N)n(Cc4ccccc4)c(=O)[nH]c3=O)coc2c1 | inactive | 
COc1ccc2cc(CN(CCO)C(=O)c3ccc(Br)cc3)c(=O)[nH]c2c1 | inactive | 
Cc1cc(O)c(C(C)C)cc1NC(=O)c1ccc(Cl)cc1 | inconclusive [activator, single point] | 
CC(C)Cn1c(=S)[nH]c2ccccc2c1=O | inconclusive [activator, partial curve, poor fit] | 
Cc1ccc(NC(=O)CC2C(=O)OCC3CCCCN32)cc1Cl (stereo not drawn) | inactive | 
OC(CSc1ccccc1Cl)CN1CCN(c2ccccc2F)CC1 (stereo not drawn) | inconclusive [activator, partial curve, poor fit] | 
CC(O)CNCCNCc1c(OCc2ccccc2)ccc2ccccc12 (stereo not drawn) | inactive | 
CCN(CC)c1ccc(NC(=O)c2c(C)nn(-c3ccc(F)cc3)c2-n2cccc2)c(C)c1 | inactive | 
CCc1nnc(NC(=O)C23CC4CC(CC(C4)C2)C3)s1 | inconclusive [activator, partial curve] | 
